# Laboratory results: the supplement of paper PMC8728848
# The other results are listed elsewhere or left out.
# B1: VLRB.aGPA.23-GCN4-biotin (Petromyzon marinus) (protein)
# chain: ACPSQCSCSGTEVNCAGKSLASVPAGIPTTTRVLYLNSNQITKLEPGVFDRLANLRELHLWGNQLVSLPPGVFDNLANLEKLWLNSNQLTSLPAGLFDRLVNLEHLGLCCMKLTELPSGAFDKLTRLKQLGLDQNQLKSIPDGAFARLPSLTHVWLHTNPWDCQCTDILYLSGWVAQHSSIVGEGWPWRHSPDSAKCSGTNTPVRAVTEASTSPSKCP
# Columns and labels:
# Experiment in all cases: glycan array binding signal (z-score within array); higher = stronger binding
# Conditions in all cases: glycan notation: IUPAC condensed, linker removed
# [1] = target: Neu5Ac(a2-6)Gal(b1-4)GlcNAc(b1-2)[Neu5Ac(a2-6)Gal(b1-4)GlcNAc(b1-4)]Man(a1-3)[GlcNAc(b1-4)][Neu5Ac(a2-6)Gal(b1-4)GlcNAc(b1-2)[Neu5Ac(a2-6)Gal(b1-4)GlcNAc(b1-6)]Man(a1-6)]Man(b1-4)GlcNAc(b1-4)GlcNAc
# Procedure, shortened: (§1)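 Arrays were curated from the Consortium for Functional Glycomics database, 3228 in total, and kept only where the protein sequence was available. Binding is expressed as a within-array Z-score. This score was averaged across arrays of the same protein sequence at different concentrations or buffers and across linkers, and negative values can be read as non-binding.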
# [2] = target: Neu5Ac(a2-6)Gal(b1-4)GlcNAc(b1-2)[Neu5Ac(a2-6)Gal(b1-4)GlcNAc(b1-4)]Man(a1-3)[GlcNAc(b1-4)][Neu5Ac(a2-6)Gal(b1-4)GlcNAc(b1-4)Man(a1-6)]Man(b1-4)GlcNAc(b1-4)GlcNAc
# Procedure, shortened: as §1
# [3] = target: Neu5Ac(a2-6)Gal(b1-4)GlcNAc(b1-2)[Neu5Ac(a2-6)Gal(b1-4)GlcNAc(b1-6)]Man(a1-6)[Neu5Ac(a2-6)Gal(b1-4)GlcNAc(b1-2)Man(a1-3)][GlcNAc(b1-4)]Man(b1-4)GlcNAc(b1-4)GlcNAc
# Procedure, shortened: as §1
# [4] = target: Neu5Ac(a2-6)Gal(b1-4)GlcNAc(b1-3)Gal(b1-3)GlcNAc
# Procedure, shortened: as §1
# [5] = target: Neu5Ac(a2-6)Gal(b1-4)GlcNAc(b1-3)Gal(b1-4)GlcNAc
# Procedure, shortened: as §1
# [6] = target: Neu5Ac(a2-6)Gal(b1-4)GlcNAc(b1-3)Gal(b1-4)GlcNAc(b1-2)Man(a1-3)[Neu5Ac(a2-6)Gal(b1-4)GlcNAc(b1-3)Gal(b1-4)GlcNAc(b1-2)Man(a1-6)]GalNAc
# Procedure, shortened: as §1
# [7] = target: Neu5Ac(a2-6)Gal(b1-4)GlcNAc(b1-3)Gal(b1-4)GlcNAc(b1-3)Gal(b1-4)GlcNAc
# Procedure, shortened: as §1
# [8] = target: Neu5Ac(a2-6)Gal(b1-4)GlcNAc(b1-3)Gal(b1-4)GlcNAc(b1-3)Gal(b1-4)GlcNAc(b1-2)Man(a1-3)[Neu5Ac(a2-6)Gal(b1-4)GlcNAc(b1-3)Gal(b1-4)GlcNAc(b1-3)Gal(b1-4)GlcNAc(b1-2)Man(a1-6)]GalNAc
# Procedure, shortened: as §1
# [9] = target: Neu5Ac(a2-6)Gal(b1-4)GlcNAc(b1-3)Gal(b1-4)GlcNAc(b1-3)GalNAc
# Procedure, shortened: as §1
# [10] = target: Neu5Ac(a2-6)Gal(b1-4)GlcNAc(b1-3)Gal(b1-4)GlcNAc(b1-3)[Neu5Ac(a2-6)Gal(b1-4)GlcNAc(b1-3)Gal(b1-4)GlcNAc(b1-6)]GalNAc
# Procedure, shortened: as §1
# [11] = target: Neu5Ac(a2-6)Gal(b1-4)GlcNAc(b1-3)Gal(b1-4)GlcNAc(b1-6)[Gal(b1-3)]GalNAc
# Procedure, shortened: as §1
# [12] = target: Neu5Ac(a2-6)Gal(b1-4)GlcNAc(b1-3)Gal(b1-4)[Fuc(a1-3)]GlcNAc(b1-3)Gal(b1-4)[Fuc(a1-3)]GlcNAc
# Procedure, shortened: as §1
# [13] = target: Neu5Ac(a2-6)Gal(b1-4)GlcNAc(b1-3)GalNAc
# Procedure, shortened: as §1
# [14] = target: Neu5Ac(a2-6)Gal(b1-4)GlcNAc(b1-3)[Neu5Ac(a2-6)Gal(b1-4)GlcNAc(b1-6)]GalNAc
# Procedure, shortened: as §1
# [15] = target: Neu5Ac(a2-6)Gal(b1-4)GlcNAc(b1-6)GalNAc
# Procedure, shortened: as §1
# [16] = target: Neu5Ac(a2-6)Gal(b1-4)GlcNAc(b1-6)[Gal(b1-3)GlcNAc(b1-3)]Gal(b1-4)Glc
# Procedure, shortened: as §1
# [17] = target: Neu5Ac(a2-6)Gal(b1-4)GlcNAc(b1-6)[Gal(b1-3)]GalNAc
# Procedure, shortened: as §1
# [18] = target: Neu5Ac(a2-6)Gal(b1-4)GlcNAc6S
# Procedure, shortened: as §1
# Neu5Ac(a2-6)GalNAc = target: Neu5Ac(a2-6)GalNAc
# Procedure, shortened: as §1
# [19] = target: Neu5Ac(a2-6)GalNAc(b1-4)GlcNAc
# Procedure, shortened: as §1
# [20] = target: Neu5Ac(a2-6)GalNAc(b1-4)GlcNAc6S
# Procedure, shortened: as §1
# [21] = target: Neu5Ac(a2-6)GlcNAc(b1-4)GlcNAc
# Procedure, shortened: as §1
# [22] = target: Neu5Ac(a2-6)GlcNAc(b1-4)GlcNAc(b1-4)GlcNAc
# Procedure, shortened: as §1
# Neu5Ac(a2-8)Neu5Ac = target: Neu5Ac(a2-8)Neu5Ac
# Procedure, shortened: as §1
# [23] = target: Neu5Ac(a2-8)Neu5Ac(a2-3)Gal(b1-3)GalNAc(b1-4)[Neu5Ac(a2-3)]Gal(b1-4)Glc
# Procedure, shortened: as §1
# [24] = target: Neu5Ac(a2-8)Neu5Ac(a2-3)Gal(b1-3)GalNAc(b1-4)[Neu5Ac(a2-8)Neu5Ac(a2-3)]Gal(b1-4)Glc
# Procedure, shortened: as §1
# [25] = target: Neu5Ac(a2-8)Neu5Ac(a2-3)Gal(b1-4)Glc
# Procedure, shortened: as §1
# [26] = target: Neu5Ac(a2-8)Neu5Ac(a2-3)Gal(b1-4)GlcNAc
# Procedure, shortened: as §1
# [27] = target: Neu5Ac(a2-8)Neu5Ac(a2-3)[Gal(b1-3)GalNAc(b1-4)]Gal(b1-4)Glc
# Procedure, shortened: as §1
# [28] = target: Neu5Ac(a2-8)Neu5Ac(a2-3)[GalNAc(b1-4)]Gal(b1-4)Glc
# Procedure, shortened: as §1
# [29] = target: Neu5Ac(a2-8)Neu5Ac(a2-8)Neu5Ac
# Procedure, shortened: as §1
# [30] = target: Neu5Ac(a2-8)Neu5Ac(a2-8)Neu5Ac(a2-3)Gal(b1-4)Glc
# Procedure, shortened: as §1
# [31] = target: Neu5Ac(a2-8)Neu5Ac(a2-8)Neu5Ac(a2-3)[Gal(b1-3)GalNAc(b1-4)]Gal(b1-4)Glc
# Procedure, shortened: as §1
# [32] = target: Neu5Ac(a2-8)Neu5Ac(a2-8)Neu5Ac(a2-3)[GalNAc(b1-4)]Gal(b1-4)Glc
# Procedure, shortened: as §1
# [33] = target: Neu5Ac(a2-8)Neu5Ac(a2-8)Neu5Ac(a2-8)Neu5Ac(a2-3)[GalNAc(b1-4)]Gal(b1-4)Glc
# Procedure, shortened: as §1
# [34] = target: Neu5Ac(a2-8)Neu5Gc(a2-3)Gal(b1-4)GlcNAc
# Procedure, shortened: as §1
# [35] = target: Neu5Ac(b2-6)Gal(b1-4)GlcNAc
# Procedure, shortened: as §1
# Neu5Ac(b2-6)GalNAc = target: Neu5Ac(b2-6)GalNAc
# Procedure, shortened: as §1
# [36] = target: Neu5Ac9Ac(a2-3)Gal(b1-3)GlcNAc
# Procedure, shortened: as §1
# [37] = target: Neu5Ac9Ac(a2-3)Gal(b1-4)GlcNAc
# Procedure, shortened: as §1
# [38] = target: Neu5Ac9Ac(a2-6)Gal(b1-4)GlcNAc
# Procedure, shortened: as §1
# [39] = target: Neu5Gc(a2-3)Gal(b1-3)GlcNAc
# Procedure, shortened: as §1
# [40] = target: Neu5Gc(a2-3)Gal(b1-3)[Fuc(a1-4)]GlcNAc
# Procedure, shortened: as §1
# Neu5Gc(a2-3)Gal(b1-4)Glc = target: Neu5Gc(a2-3)Gal(b1-4)Glc
# Procedure, shortened: as §1
# [41] = target: Neu5Gc(a2-3)Gal(b1-4)GlcNAc
# Procedure, shortened: as §1
# [42] = target: Neu5Gc(a2-3)Gal(b1-4)GlcNAc(b1-3)Gal(b1-4)GlcNAc(b1-2)Man(a1-3)[Neu5Gc(a2-3)Gal(b1-4)GlcNAc(b1-3)Gal(b1-4)GlcNAc(b1-2)Man(a1-6)]Man(b1-4)GlcNAc(b1-4)GlcNAc
# Procedure, shortened: as §1
# [43] = target: Neu5Gc(a2-3)Gal(b1-4)[Fuc(a1-3)]GlcNAc
# Procedure, shortened: as §1
# [44] = target: Neu5Gc(a2-6)Gal(b1-4)GlcNAc
# Procedure, shortened: as §1
# Neu5Gc(a2-6)GalNAc = target: Neu5Gc(a2-6)GalNAc
# Procedure, shortened: as §1
# [45] = target: Neu5Gc(a2-8)Neu5Ac(a2-3)Gal(b1-4)GlcNAc
# Procedure, shortened: as §1
# [46] = target: Neu5Gc(a2-8)Neu5Gc(a2-3)Gal(b1-4)GlcNAc
# Procedure, shortened: as §1
# [47] = target: Neu5Gc(a2-8)Neu5Gc(a2-3)Gal(b1-4)GlcNAc(b1-3)Gal(b1-4)GlcNAc
# Procedure, shortened: as §1
# [48] = target: Neu5Gc(a2-8)Neu5Gc(a2-6)Gal(b1-4)GlcNAc
# Procedure, shortened: as §1
# [49] = target: Neu5Gc(b2-6)Gal(b1-4)GlcNAc
# Procedure, shortened: as §1
binder,measurement,setting,value
B1,glycan array binding signal (z-score),[1],-0.078
same,glycan array binding signal (z-score),[2],-0.082
same,glycan array binding signal (z-score),[3],-0.075
same,glycan array binding signal (z-score),[4],-0.086
same,glycan array binding signal (z-score),[5],-0.081
same,glycan array binding signal (z-score),[6],-0.06
same,glycan array binding signal (z-score),[7],-0.083
same,glycan array binding signal (z-score),[8],-0.027
same,glycan array binding signal (z-score),[9],-0.084
same,glycan array binding signal (z-score),[10],-0.021
same,glycan array binding signal (z-score),[11],-0.072
same,glycan array binding signal (z-score),[12],-0.08
same,glycan array binding signal (z-score),[13],-0.081
same,glycan array binding signal (z-score),[14],-0.084
same,glycan array binding signal (z-score),[15],-0.077
same,glycan array binding signal (z-score),[16],-0.084
same,glycan array binding signal (z-score),[17],-0.077
same,glycan array binding signal (z-score),[18],-0.08
same,glycan array binding signal (z-score),Neu5Ac(a2-6)GalNAc,-0.079
same,glycan array binding signal (z-score),[19],-0.087
same,glycan array binding signal (z-score),[20],-0.067
same,glycan array binding signal (z-score),[21],-0.085
same,glycan array binding signal (z-score),[22],-0.087
same,glycan array binding signal (z-score),Neu5Ac(a2-8)Neu5Ac,-0.074
same,glycan array binding signal (z-score),[23],-0.084
same,glycan array binding signal (z-score),[24],-0.068
same,glycan array binding signal (z-score),[25],-0.084
same,glycan array binding signal (z-score),[26],-0.083
same,glycan array binding signal (z-score),[27],-0.076
same,glycan array binding signal (z-score),[28],-0.083
same,glycan array binding signal (z-score),[29],-0.08
same,glycan array binding signal (z-score),[30],-0.085
same,glycan array binding signal (z-score),[31],-0.082
same,glycan array binding signal (z-score),[32],-0.062
same,glycan array binding signal (z-score),[33],-0.078
same,glycan array binding signal (z-score),[34],-0.085
same,glycan array binding signal (z-score),[35],-0.082
same,glycan array binding signal (z-score),Neu5Ac(b2-6)GalNAc,-0.082
same,glycan array binding signal (z-score),[36],-0.082
same,glycan array binding signal (z-score),[37],-0.045
same,glycan array binding signal (z-score),[38],-0.073
same,glycan array binding signal (z-score),[39],-0.078
same,glycan array binding signal (z-score),[40],-0.074
same,glycan array binding signal (z-score),Neu5Gc(a2-3)Gal(b1-4)Glc,-0.068
same,glycan array binding signal (z-score),[41],-0.084
same,glycan array binding signal (z-score),[42],-0.074
same,glycan array binding signal (z-score),[43],-0.074
same,glycan array binding signal (z-score),[44],-0.076
same,glycan array binding signal (z-score),Neu5Gc(a2-6)GalNAc,-0.075
same,glycan array binding signal (z-score),[45],-0.085
same,glycan array binding signal (z-score),[46],-0.087
same,glycan array binding signal (z-score),[47],-0.078
same,glycan array binding signal (z-score),[48],-0.082
same,glycan array binding signal (z-score),[49],-0.07
